Reference: PubChem BioAssay AID652106 (National Center for Advancing Translational Sciences (NCATS), 2013)
Out of some 370,000 compounds screened, about 500 (0.14%) were called active. The inconclusive results got no clear call from the source; some entries with a clear call stand among them for comparison. The call rests on the fitted dose curve; in most records, active means well fitted activation curve with a large enough effect; inconclusive means small, poorly fitted or top-dose-only effect; inactive means no such curve, though single readings can be large or run the other way. No potency is given beside an inconclusive call; the fits are too rough.

Experiment: qHTS of alpha-syn Inhibitors; further: nearly all actives have a fitted effect of over 65% in size; on growth rescue (activation): % of control where 0% means no effect
Details: Yeast expressing alpha-synuclein, BacTiter-Glo, 24 h; Potency: growth rescue unless noted; growth rescue (activation): at 46.1 µM (top of the series) unless noted
Procedure, shortened: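 Rescue of yeast growth: cells expressing toxic alpha-synuclein, induced in galactose at OD600 0.02, incubated with compound 24 h at 30 C. ATP luminescence quantified growth; inhibitors of toxicity appear as activators.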
Potency means the concentration at half of the fitted maximal effect; tags describe the fitted curve by direction and shape.

Compound | Potency | growth rescue (activation)
O=C(COc1ccc(S(=O)(=O)NC2CCCCC2)cc1)Nc1ccc2c(c1)OCCO2 | inconclusive [activator, single point] | –
O=C(Nc1ccc2ncccc2c1)c1ccccc1Cl | – | inactive: -9.78%
Cc1nc2ccc(NC(=O)/C=C/C(=O)O)cc2nc1C | inconclusive [activator, single point] | –
COC(=O)C(C(=O)OC)C(c1ccccc1)C(C(=O)c1ccccc1)[N+](=O)[O-] (centres undefined) | inconclusive [activator, partial curve, poor fit] | –
CC(=O)N=c1sc2nc3ccccc3nc2n1N(C(C)=O)C(C)=O | – | inactive: -0.856%
CC(=O)NC(C)(c1ccccc1)c1nc(-c2cccc(C#N)c2)cs1 (centres undefined) | inconclusive [activator, single point] | –
O=C(O)CSCC(=O)N1CCN(S(=O)(=O)c2cc(Cl)cc(Cl)c2)CC1 | inconclusive [activator, single point] | –
O=C1C=C(c2ccc(C(=O)O)cc2)C[C@@H](c2ccc3c(c2)OCO3)C1 | inconclusive [activator, full curve, poor fit] | –
O=C(/C(C=Nc1ccc(F)cc1)=C(/O)c1ccco1)C(F)(F)F | inconclusive [activator, partial curve] | –
COc1ccc2c(c1)O/C(=C\c1ccco1)C2=O | – | inactive: 8.26%
c1ccc(-c2cc(-c3nnc4n3N=C(c3ccc5ccccc5c3)CS4)[nH]n2)cc1 | inconclusive [activator, single point] | –
Cc1cccc(C)c1NS(=O)(=O)c1ccc(-c2cnc(C3CC3)o2)cc1 | inconclusive [activator, single point] | –
O=S1(=O)CC(N2CCN(CCO)CC2)CN1Cc1cn(Cc2cccc(Cl)c2)nn1 (centres undefined) | inconclusive [activator, single point] | –
O=C(NCCc1ccccc1)c1ccc2nc(N3CCOCC3)sc2c1 | – | inactive: 0.147%
Cc1ccc2cc3cc(C(=O)NCCCN4CCc5ccccc5C4)oc3nc2c1 | inconclusive [activator, single point] | –
COC(=O)c1ccccc1NC(=O)/C=C/c1cc(OC)c(OC)c(OC)c1 | – | inactive: -14.1%
O=[N+]([O-])c1ccc(Nc2ccccc2)c2nonc12 | – | inactive: 4.87%
COc1cccc(/C=N/Nc2ncnc(Cl)c2N)c1O | inconclusive [activator, single point] | –
COc1ccc(CCN2C(=O)CC(NNC(=O)c3ccccc3Br)C2=O)cc1OC (centres undefined) | inconclusive [activator, single point] | –
S=C(S)N1CCCC1 | – | inconclusive: -89.1% [activator]
CN(C)c1nc(-c2ccccn2)nnc1-c1ccccc1 | inconclusive [activator, single point] | –
C(=C\c1cnc2ccccc2n1)/c1ccc2c(c1)OCO2 | – | inactive: -7.47%

Compound | Potency | growth rescue (activation)
Oc1cccc(/C=C/c2ccc3cccc(O)c3n2)c1 | inconclusive [activator, single point] | –
CC1(N2CCOCC2)C(=O)c2ccccc2C1=O | – | inactive: 0.613%
CCN(c1ccccc1)S(=O)(=O)c1ccc(Oc2ccccc2)c(N)c1 | inconclusive [activator, single point] | –
Cc1sc2ccccc2c1CNC[C@H]1O[C@@H](n2ccc(=O)[nH]c2=O)[C@H](O)[C@@H]1O | inconclusive [activator, single point] | –
CC(C)(C#N)Nc1ccccc1 | – | inactive: -3.73%
CC(=O)N1c2ccccc2N(Cc2ccc(C)cc2C)C(=O)C1(C)C | inconclusive [activator, partial curve] | –
COC(=O)[C@@]1(Cc2ccc(F)cc2)[C@H]2c3cc(C(=O)N(C)C)n(CCF)c3C[C@H]2CN1C(=O)c1ccccc1 | inconclusive [activator, single point] | –
CCNC(=O)C1(C)CCCN1C(=O)c1ccc(F)c(Cl)c1 (centres undefined) | inconclusive [activator, single point] | –
COc1ccccc1C1C(C(N)=O)=C(C)Nc2nc(-c3ccccc3Cl)nn21 (centres undefined) | inconclusive [activator, single point] | –
C=CCC[C@@H](Cc1ccc(F)cc1)C(=O)OC[C@@H]1CCCN1C(=O)[C@H](CC=C)CC(=O)N[C@H](CO)Cc1ccccc1 | inconclusive [activator, single point] | –
COc1ccc(N2C(=O)C(C)(C)C2c2c(O)ccc3ccccc23)cc1 (centres undefined) | inconclusive [activator, single point] | –
CC(C)(C)NC(=O)CSc1nc(O)cc(=O)[nH]1 | inconclusive [activator, single point] | –
COc1ccccc1NC(=O)Nc1cc(C(C)C)ccc1C | inconclusive [activator, single point] | –
CCCCC(CC)CNC(=O)CCS(=O)(=O)c1cccc2nonc12 (centres undefined) | inconclusive [activator, single point] | –
CCOc1cccc(C(=O)N/N=C/c2coc3ccccc3c2=O)c1 | – | inactive: 1.09%
O=C(/C=C/c1cccc([N+](=O)[O-])c1)Nc1ccccn1 | inconclusive [activator, single point] | –
COc1cccc(C2C3=C(N=c4s/c(=C\c5ccc(O)cc5)c(=O)n42)c2ccccc2CC3)c1OC (centres undefined) | inconclusive [activator, single point] | –
Cc1noc(C)c1-c1ccc(C(=O)NCCc2ccccc2)c2occc12 | – | inactive: -18.5%
COc1ccc(NC(=O)c2cc(C3CCCCN3C(=O)c3ccccc3)on2)c(C)c1 (centres undefined) | – | inactive: 1.94%
COc1ccc2cc(C3(C)NC(=O)N(CC(=O)NCC(F)(F)F)C3=O)ccc2c1 (centres undefined) | – | inactive: -1.82%
O=C(Nc1nnc(C2=COCCO2)o1)c1cccc(C(F)(F)F)c1 | inconclusive [activator, single point] | –
COc1ccccc1OCC(=O)NCC1CCCN(C(=O)c2ccccc2SC)C1 (centres undefined) | inconclusive [activator, single point] | –
